# Assay results as given in ChEMBL document CHEMBL4888484, “Replenishing the malaria drug discovery pipeline: Screening and hit evaluation of the MMV Hit Generation Library 1 (HGL1) against asexual blood stage Plasmodium falciparum ,using a nano luciferase reporter read-out” (2022).
# In all, about 150,000 compounds went through this assay and about 540 (0.36%) showed an effect of 50% or more. Some of the results follow.
# Tested on: Plasmodium falciparum
# Assay: Primary screen in NF54 nanoGlo assay, in single point, at 2uM, 72h; a lower Z score goes with more inhibition
# Assay type: functional, Erythrocyte
# Conditions: timepoint 72 hour
Compound,% Inhibition,Z score
Cn1cccc1-c1nnc2n1CCCC2,6%,-1.18
O=C(Nc1nccs1)[C@H]1CCCN(Cc2cnc3ccccn23)C1,-24%,2.04
Cc1c(C(=O)N(C)CCc2ccccn2)oc2c(Cl)cccc12,-11%,2.02
Cc1cnc(N2CCN(C(=O)C(C)(C)N3CCN(C(=O)OC(C)(C)C)CC3)CC2)s1,-1%,0.11
CC(=O)N1CCC(C(=O)N2c3ccccc3C[C@@H]2C)CC1,-9%,1.71
Cc1nn(-c2ccc(F)cc2)c2c1c(=O)c(C(=O)NCc1cccs1)cn2C,-1%,0.1
Cc1n[nH]c(CN2CCN(Cc3ccccc3)[C@H]3CS(=O)(=O)C[C@H]32)n1,-3%,0.34
CCOC[C@@H](O)CN(Cc1c(-c2ccccc2)nn(C)c1Oc1ccc(C)cc1)C1CC1,-12%,1.17
O=C(NC1CCOC2(CCS(=O)(=O)C2)C1)NC1CCCC12CCCCC2 (stereo unspecified),-3%,0.42
CC(C)C1CCCCC1NC(=O)C(=O)Nc1ncn(CC(=O)N(C)C)n1 (stereo unspecified),20%,-2.3
O=C1NC2(CCN(C(=O)NCCc3ccccc3)CC2)Nc2c(Cl)cccc21,-4%,0.47
Cc1cc(F)ccc1-c1ccc(C(=O)N[C@@]2(CO)CCOC2)cc1F,-2%,0.33
O=C(Nc1c(Cl)cccc1Cl)c1ncc(-c2ccccc2)o1,15%,-2.07
Cc1cc(=O)c2c(C3CCCC3)nn(-c3ccccc3)c2[nH]1,-14%,1.66
O=C(N[C@H]1CCOC12CCCC2)c1cc(CO)on1,11%,-1.39
COC[C@@H]1[C@H](C(=O)N2CCN(c3ccc(F)cc3)CC2)CCC(=O)N1C,-17%,2.05
Cc1noc(C)c1NC(=O)COCC1CC1,-8%,0.98
COc1cccc(C(=O)N2CCC3(CC2)C[C@@H](N2CCOCC2)CCO3)c1,-5%,0.67
CC(=O)Nc1ccc(C)cc1NCC(=O)NCC(F)(F)F,-11%,1.77
O=C(Nc1cccnc1)N(CCC(F)(F)F)C1CCC1,-2%,0.25
O=C(Cn1cnnn1)Nc1cc(-c2ccccc2)ccc1Cl,-4%,0.41
Cc1onc(-c2ccccc2Cl)c1C(=O)Nc1cccc(S(=O)(=O)N2CCOCC2)c1,-13%,1.81
CCOC(=O)[C@]12CCCN[C@@H]1CCN(C(=O)OCc1ccccc1)C2,-15%,2.16
